Each structure is given as a SMILES string. The list shows a part of the results. Most values come without repeats; read them as rough.

Test systems include WM115; WM1716; WM1745; WM3526; WM3619; WM451Lu.
Holding throughout (assay): cell count relative to DMSO control; melanoma cells; higher = more viable cells
Details in all cases: library dose: low library concentration; 72 h
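Note: cell number obtained by counting DAPI-stained nuclei in high-throughput microscope images with image analysis software, screen run in 1,536-well plates.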

For `COc1cc([C@@H]2c3cc4c(cc3[C@@H](O[C@@H]3O[C@@H]5CO[C@@H](C)O[C@H]5[C@H](O)[C@H]3O)[C@H]3COC(=O)[C@H]23)OCO4)cc(OC)c1O` [etoposide] + NC1(c2ccc(-c3nc4ccn5c(=O)[nH]nc5c4cc3-c3ccccc3)cc2)CCC1 [MK2206] (first compound 0.02 µM, partner dose 0.4 µM), the cell count worked out at 69.9% in the test with WM115; 108% with WM1716; 98.4% in the test on WM1745; 77.5% in the test on WM3526; 113% in the test with WM3619; 60.7% in the test with WM451Lu.
`CCN(CC)CCNC(=O)c1c(C)[nH]c(/C=C2\C(=O)Nc3ccc(F)cc32)c1C` [sunitinib] + Cn1c(=O)n(-c2ccc(C(C)(C)C#N)cc2)c2c3cc(-c4cnc5ccccc5c4)ccc3ncc21 [NVP-BEZ235] (first compound 0.4 µM, partner dose 0.004 µM): the cell count in the test with WM115 stood at 76.6%; in the test on WM1716, 125%; in the test with WM1745, 86.3%; in the test with WM3526, 71.4%; with WM3619, 130%; with WM451Lu, 99.1%.
For the compound `COc1cc([C@@H]2c3cc4c(cc3[C@@H](O[C@@H]3O[C@@H]5CO[C@@H](C)O[C@H]5[C@H](O)[C@H]3O)[C@H]3COC(=O)[C@H]23)OCO4)cc(OC)c1O` [etoposide] + COc1ccc(Cl)c(Nc2nc3ccccc3nc2NS(=O)(=O)c2cccc(NC(=O)C(C)(C)N)c2)c1 [XL147] (first compound 0.02 µM, partner dose 0.8 µM), the cell count in the test with WM115 was determined as 106%; with WM1716, 102%; in the test on WM1745, 85.6%; with WM3526, 121%; with WM3619, 95.1%; in the test on WM451Lu it was 102%.
For the compound `Cn1cnc2c(F)c(Nc3ccc(Br)cc3Cl)c(C(=O)NOCCO)cc21` [selumetinib] + C[C@]1(c2nc3c(C(N)=O)cccc3[nH]2)CCCN1 [Veliparib] (first compound 0.015 µM, partner dose 1.4 µM), the cell count was 79.9% in the test on WM115; 102% in the test on WM1716; 90.4% in the test on WM1745; 53.5% with WM3526; 82.2% in the test on WM3619; 130% in the test on WM451Lu.
In the case of `C[C@]1(O)C[C@@H](c2nc(-c3ccc4ccc(-c5ccccc5)nc4c3)c3c(N)nccn32)C1` + O=C(O)C(=O)Nc1sc2c(c1C(=O)O)CCNC2 [TCS401] (first compound 0.4 µM, partner dose 1.66667 µM), the cell count in the test with WM115 is 106%; with WM1716, 108%; in the test on WM1745, 65.2%; in the test on WM3526, 71.2%; with WM3619 it was 81.3%; in the test with WM451Lu, 87.9%.
In the case of `CCN(CC)CCNC(=O)c1c(C)[nH]c(/C=C2\C(=O)Nc3ccc(F)cc32)c1C` [sunitinib] + NC1(c2ccc(-c3nc4ccn5c(=O)[nH]nc5c4cc3-c3ccccc3)cc2)CCC1 [MK2206] (first compound 0.4 µM, partner dose 0.4 µM), the cell count with WM115 was found to be 75%; in the test on WM1716 it was 125%; in the test on WM1745, 68.5%; with WM3526, 64.2%; in the test on WM3619, 61.2%; in the test with WM451Lu it was 106%.
Regarding `CCN(CC)CCNC(=O)c1c(C)[nH]c(/C=C2\C(=O)Nc3ccc(F)cc32)c1C` [sunitinib] + CC(=O)c1c(C)c2cnc(Nc3ccc(N4CCNCC4)cn3)nc2n(C2CCCC2)c1=O [palbociclib] (first compound 0.4 µM, partner dose 0.04 µM), the cell count was found to be 82.7% in the test on WM115; 97.6% in the test on WM1716; 71.5% in the test on WM1745; 76.3% with WM3526; 99.9% with WM3619; 81.7% in the test with WM451Lu.
`Cn1cnc2c(F)c(Nc3ccc(Br)cc3Cl)c(C(=O)NOCCO)cc21` [selumetinib] + Cn1cc(/C=C2\C(=O)Nc3cccnc32)c2ccccc21 [GW441756] (first compound 0.015 µM, partner dose 0.4 µM): the cell count in the test with WM115 stood at 85.9%; with WM1716, 113%; in the test with WM1745, 92.9%; in the test with WM3526 it was 69%; with WM3619, 102%; with WM451Lu, 96.5%.
In the case of `Cn1cnc2c(F)c(Nc3ccc(Br)cc3Cl)c(C(=O)NOCCO)cc21` [selumetinib] + Cn1c(Nc2ccc(C(F)(F)F)cc2)nc2cc(Oc3ccnc(-c4ncc(C(F)(F)F)[nH]4)c3)ccc21 [CHIR265] (first compound 0.015 µM, partner dose 0.08 µM), the cell count with WM115 was 42.3%; in the test on WM1716 it was 80.9%; in the test with WM1745, 71.2%; in the test with WM3526 it was 24.6%; in the test with WM3619 it was 35.8%; with WM451Lu, 77.6%.
For `C[C@]1(O)C[C@@H](c2nc(-c3ccc4ccc(-c5ccccc5)nc4c3)c3c(N)nccn32)C1` + CN(c1ncccc1CNc1nc(Nc2ccc3c(c2)CC(=O)N3)ncc1C(F)(F)F)S(C)(=O)=O [PF562271] (first compound 0.4 µM, partner dose 0.08 µM), the cell count in the test on WM115 was 69.7%; in the test on WM1716 it was 67.5%; in the test with WM1745, 58.6%; in the test with WM3526, 65.3%; with WM3619, 95.6%; in the test on WM451Lu, 84.7%.
Consider `COc1cc([C@@H]2c3cc4c(cc3[C@@H](O[C@@H]3O[C@@H]5CO[C@@H](C)O[C@H]5[C@H](O)[C@H]3O)[C@H]3COC(=O)[C@H]23)OCO4)cc(OC)c1O` [etoposide] + Cn1cnc2c(F)c(Nc3ccc(Br)cc3Cl)c(C(=O)NOCCO)cc21 [selumetinib] (first compound 0.02 µM, partner dose 0.015 µM), for which the cell count in the test on WM115 worked out at 90%; in the test with WM1716 it was 106%; in the test on WM1745 it was 85.1%; in the test on WM3526 it was 88.6%; in the test on WM3619, 81%; in the test with WM451Lu, 99.1%.
For `C[C@]1(O)C[C@@H](c2nc(-c3ccc4ccc(-c5ccccc5)nc4c3)c3c(N)nccn32)C1` + CCN(CC)CCNC(=O)c1c(C)[nH]c(/C=C2\C(=O)Nc3ccc(F)cc32)c1C [sunitinib] (first compound 0.4 µM, partner dose 0.4 µM), the cell count came to 104% in the test on WM115; 123% with WM1716; 67% in the test on WM1745; 82.3% with WM3526; 82.1% in the test on WM3619; 81.6% in the test on WM451Lu.
Regarding `Cn1cnc2c(F)c(Nc3ccc(Br)cc3Cl)c(C(=O)NOCCO)cc21` [selumetinib] + O=C(O)C(=O)Nc1sc2c(c1C(=O)O)CCNC2 [TCS401] (first compound 0.015 µM, partner dose 1.66667 µM), the cell count with WM115 was found to be 90.3%; with WM1716, 111%; in the test on WM1745 it was 95.7%; in the test with WM3526, 75.1%; with WM3619, 94.1%; with WM451Lu, 114%.
`COc1cc([C@@H]2c3cc4c(cc3[C@@H](O[C@@H]3O[C@@H]5CO[C@@H](C)O[C@H]5[C@H](O)[C@H]3O)[C@H]3COC(=O)[C@H]23)OCO4)cc(OC)c1O` [etoposide] + Nc1cccc2c1CN(C1CCC(=O)NC1=O)C2=O [lenalidomide] (first compound 0.02 µM, partner dose 1 µM): the cell count worked out at 93.4% in the test with WM115; 86.7% with WM1716; 80.9% in the test with WM1745; 82.8% in the test with WM3526; 67.2% with WM3619; 89.4% in the test with WM451Lu.
For the compound `CCN(CC)CCNC(=O)c1c(C)[nH]c(/C=C2\C(=O)Nc3ccc(F)cc32)c1C` [sunitinib] + COc1ccc(COc2ccc(Cc3cnc(N)nc3N)cc2OC)cc1 [GW2580] (first compound 0.4 µM, partner dose 1 µM), the cell count turned out to be 99.2% in the test on WM115; 134% in the test with WM1716; 60.6% in the test with WM1745; 92.8% with WM3526; 112% in the test on WM3619; 83.7% in the test with WM451Lu.
On to `Cn1cnc2c(F)c(Nc3ccc(Br)cc3Cl)c(C(=O)NOCCO)cc21` [selumetinib] + O=C(Nc1cccc(Cl)c1)Nc1ncc(CCNc2ncnc3ccsc23)s1 [SNS314] (first compound 0.015 µM, partner dose 0.0008 µM), for which the cell count in the test with WM115 was 93.9%; in the test with WM1716 it was 118%; in the test on WM1745, 82.5%; in the test on WM3526, 88.5%; in the test on WM3619, 77.6%; in the test on WM451Lu, 101%.
For the compound `CCN(CC)CCNC(=O)c1c(C)[nH]c(/C=C2\C(=O)Nc3ccc(F)cc32)c1C` [sunitinib] + CN(C)S(=O)(=O)c1ccc2c(c1)/C(=C/c1cc3c([nH]1)CCCC3)C(=O)N2 [SU6656] (first compound 0.4 µM, partner dose 0.4 µM), the cell count in the test with WM115 was determined as 75.5%; with WM1716, 124%; in the test on WM1745, 82.1%; in the test on WM3526, 64.8%; in the test on WM3619, 113%; in the test on WM451Lu, 82.9%.
On to `Cn1cnc2c(F)c(Nc3ccc(Br)cc3Cl)c(C(=O)NOCCO)cc21` [selumetinib] + COc1cc(N2CCC(N3CCN(C)CC3)CC2)ccc1Nc1ncc(Cl)c(Nc2ccccc2S(=O)(=O)C(C)C)n1 [NVP-TAE684] (first compound 0.015 µM, partner dose 0.08 µM), for which the cell count in the test with WM115 came to 81.2%; in the test with WM1716, 85%; in the test on WM1745 it was 114%; with WM3526 it was 67.7%; in the test with WM3619, 88.1%; in the test on WM451Lu, 93.6%.
Consider `C[C@]1(O)C[C@@H](c2nc(-c3ccc4ccc(-c5ccccc5)nc4c3)c3c(N)nccn32)C1` + CN1CCN(c2ccc3nc(-c4c(N)c5c(F)cccc5[nH]c4=O)[nH]c3c2)CC1 [Dovitinib] (first compound 0.4 µM, partner dose 0.1 µM), for which the cell count with WM115 worked out at 99%; in the test with WM1716 it was 104%; in the test on WM1745, 85.7%; in the test with WM3526, 90.7%; with WM3619 it was 89%; in the test on WM451Lu, 86.1%.
With `Cn1cnc2c(F)c(Nc3ccc(Br)cc3Cl)c(C(=O)NOCCO)cc21` [selumetinib] + C=CCNC1=C2C[C@@H](C)C[C@H](OC)[C@H](O)[C@@H](C)/C=C(\C)[C@H](OC(N)=O)[C@@H](OC)/C=C\C=C(/C)C(=O)NC(=CC1=O)C2=O [Tanespimycin] (first compound 0.015 µM, partner dose 0.002 µM), the cell count in the test on WM115 came out at 78.8%; with WM1716, 103%; with WM1745 it was 90.5%; in the test on WM3526 it was 70.6%; in the test on WM3619 it was 79.9%; in the test with WM451Lu, 93%.
As for `CCN(CC)CCNC(=O)c1c(C)[nH]c(/C=C2\C(=O)Nc3ccc(F)cc32)c1C` [sunitinib] + C=CCNC1=C2C[C@@H](C)C[C@H](OC)[C@H](O)[C@@H](C)/C=C(\C)[C@H](OC(N)=O)[C@@H](OC)/C=C\C=C(/C)C(=O)NC(=CC1=O)C2=O [Tanespimycin] (first compound 0.4 µM, partner dose 0.002 µM), the cell count with WM115 amounted to 101%; in the test with WM1716, 130%; in the test on WM1745, 77.9%; with WM3526, 81.1%; in the test with WM3619, 110%; in the test with WM451Lu, 98.7%.
For `COc1cc([C@@H]2c3cc4c(cc3[C@@H](O[C@@H]3O[C@@H]5CO[C@@H](C)O[C@H]5[C@H](O)[C@H]3O)[C@H]3COC(=O)[C@H]23)OCO4)cc(OC)c1O` [etoposide] + C[C@@H]1CCN(C(=O)CC#N)C[C@@H]1N(C)c1ncnc2[nH]ccc12 [CP690550] (first compound 0.02 µM, partner dose 1 µM), the cell count with WM115 turned out to be 110%; in the test on WM1716, 98%; with WM1745, 96.3%; in the test on WM3526 it was 105%; with WM3619 it was 80.7%; in the test with WM451Lu it was 128%.

Source of the values: the supplement of paper PMC4604168 (melanoma cell lines).
